# Measurements from the supplement of paper PMC9446081.
# In all, about 39,000 compounds went through this assay and about 220 (0.56%) showed activity. The list shows a part of the results.
# Test system: Escherichia coli K-12 BW25113
# Test: relative growth (OD600 normalised to plate interquartile mean) (fraction); higher = less growth inhibition, active = 0.2 or less
# Conditions: 50 µM; LB; incubation time: overnight (16-24 h)
# 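Also: static incubation at 37 °C against the wild-type strain, values averaged over two biological replicates.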
row,Compound,relative growth
1,C[C@@H]1CN([C@@H](C)CO)C(=O)c2cc(NC(=O)Nc3ccc(F)cc3)ccc2O[C@@H](C)CCCCO[C@H]1CN(C)Cc1ccc(Cl)c(Cl)c1,inactive: 1.03
2,Cc1ccc(S(=O)(=O)N(C)C[C@H]2Oc3cc(Br)ccc3S(=O)(=O)N([C@H](C)CO)C[C@H]2C)cc1,inactive: 1.02
3,C[C@H]1CN([C@@H](C)CO)C(=O)c2cc(/C=C/c3ccccc3)cnc2O[C@@H]1CN(C)C(=O)CN1CCOCC1,inactive: 0.996
4,Cc1ccc(S(=O)(=O)n2cc([C@H]3CC(=O)N(C(=O)OCc4ccccc4)[C@H]3C(=O)Nc3cccc4cccnc34)c3ccccc32)cc1,inactive: 1.04
5,C[C@@H]1CN([C@H](C)CO)C(=O)c2cc(NS(=O)(=O)c3cn(C)cn3)ccc2O[C@@H]1CN(C)C(=O)Nc1ccc(F)cc1,inactive: 1.01
6,C[C@H](CO)N1C[C@H](C)[C@@H](CN(C)S(=O)(=O)c2ccccc2)OCCCC[C@H](C)Oc2ccc(NC(=O)CCC(F)(F)F)cc2C1=O,inactive: 0.931
7,COc1ccc(CN(C)C[C@H]2OCCCC[C@@H](C)Oc3ccc(NC(=O)Nc4ccc(C(F)(F)F)cc4)cc3C(=O)N([C@@H](C)CO)C[C@H]2C)cc1,inactive: 1
8,C[C@@H]1CCCCO[C@H](CN(C)C(=O)Nc2ccc(C(F)(F)F)cc2)[C@@H](C)CN([C@H](C)CO)C(=O)c2cc(NS(=O)(=O)c3cccs3)ccc2O1,inactive: 1.01
9,C[C@H](CO)N1C[C@H](C)[C@H](CN(C)CC2CC2)OCCCC[C@H](C)Oc2ccc(NC(=O)c3ccccc3)cc2C1=O,inactive: 0.981
10,C[C@@H]1CN([C@@H](C)CO)C(=O)c2cc(NC(=O)Nc3cccc4ccccc34)ccc2O[C@H]1CN(C)Cc1ccc(C(=O)Nc2ccccc2N)cc1,inactive: 1
11,O=C1NC(=O)[C@H]2[C@@H]1[C@H](c1ccccc1)N1[C@@H]3C(=O)NC(=O)[C@@H]3[C@H](c3ccccc3)N21,inactive: 0.993
12,C[C@@H]1CCCCO[C@H](CN(C)Cc2ccc(C(F)(F)F)cc2)[C@@H](C)CN([C@@H](C)CO)C(=O)c2cc(NC(=O)C3CCCCC3)ccc2O1,inactive: 0.993
13,C[C@@H]1CN([C@@H](C)CO)C(=O)c2cc(C#CC3(O)CCCC3)cnc2O[C@@H]1CN(C)C(=O)Cc1ccncc1,inactive: 1.05
14,CCOC(=O)C1=NNC[C@@H]1C(=O)OCC,inactive: 1
15,COc1ccc(NC(=O)Nc2ccc3c(c2)C(=O)N([C@H](C)CO)C[C@H](C)[C@H](CN(C)S(=O)(=O)c2c(C)noc2C)OCCCC[C@@H](C)O3)cc1,inactive: 1.04
16,C[C@@H]1CN([C@@H](C)CO)C(=O)c2c(c3ccccc3n2C)-c2ccccc2CO[C@@H]1CN(C)S(=O)(=O)c1cn(C)cn1,inactive: 1.02
17,COc1ccc(-c2cc(=O)c3c(O)cc(O)cc3o2)cc1,inactive: 1.11
18,CC(C)NC(=O)Nc1ccc2c(c1)C(=O)N([C@@H](C)CO)C[C@H](C)[C@@H](CN(C)C(=O)Nc1ccccc1)OCCCC[C@@H](C)O2,inactive: 0.992
19,COc1ccc(NC(=O)Nc2ccc3c(c2)[C@@H]2C[C@H](CC(=O)N4CCN(C)CC4)O[C@H](CO)[C@@H]2O3)cc1,inactive: 0.996

row,Compound,relative growth
1,C[C@@H]1CN([C@@H](C)CO)C(=O)c2cc(NC(=O)C3CCCCC3)ccc2O[C@@H](C)CCCCO[C@@H]1CN(C)Cc1ccccc1,inactive: 1
2,COC(=O)[C@H](Cc1ccccc1)N1CC2=C[C@@H](C3CC3)n3c(=O)n(C)c(=O)n3[C@H]2[C@@H]1[C@@H](O)Cc1ccccc1,inactive: 1
3,C[C@H]1CN([C@@H](C)CO)C(=O)c2cc(NC(=O)CCCN(C)C)ccc2O[C@@H]1CN(C)C(=O)Nc1ccc(F)cc1,inactive: 1
4,Cc1noc(C)c1S(=O)(=O)Nc1ccc2c(c1)C(=O)N([C@H](C)CO)C[C@H](C)[C@@H](CN(C)C(=O)NC(C)C)O2,inactive: 1.02
5,OCc1cnccn1,inactive: 0.996
6,O=c1c(O)cccc2cc(O)c(O)c(O)c12,inactive: 0.903
7,CN1C(=O)c2cc(NC(=O)c3cnccn3)ccc2OC[C@H]2O[C@@H](CC(=O)N[C@@H]3CCN(Cc4ccccc4)C3)CC[C@@H]21,inactive: 0.995
8,COC[C@@H](O)CSc1[nH]c(C)nc1[N+](=O)[O-],inactive: 1.01
9,CC(C)NC(=O)Nc1ccc2c(c1)CC(=O)N([C@@H](C)CO)C[C@H](C)[C@@H](CN(C)Cc1ccc3c(c1)OCO3)O2,inactive: 1
10,C[C@H](CO)N1C[C@H](C)[C@H](CN(C)C(=O)Nc2cccc3ccccc23)Oc2c(NS(=O)(=O)c3cccs3)cccc2C1=O,inactive: 0.996
11,Cc1noc(C)c1NC(=O)Nc1ccc2c(c1)C(=O)N([C@@H](C)CO)C[C@H](C)[C@@H](CN(C)CC1CC1)OCCCC[C@H](C)O2,inactive: 1.01
12,Cc1ccc(S(=O)(=O)N(C)C[C@@H]2Oc3ccc(NC(=O)c4ccncc4)cc3C(=O)N([C@@H](C)CO)C[C@@H]2C)cc1,inactive: 1
13,O=C(C[C@H]1CC[C@H]2[C@@H](COC[C@@H](O)CN2S(=O)(=O)c2ccccc2Cl)O1)NCc1ccccc1Cl,inactive: 1.02
14,COc1ccc(S(=O)(=O)Nc2ccc3c(c2)[C@H]2C[C@@H](CC(=O)NCC4CC4)O[C@@H](CO)[C@H]2O3)cc1,inactive: 0.974
15,Cc1ccc(S(=O)(=O)NC(=O)NN2CC3CCCC3C2)cc1 (stereo not drawn),inactive: 1.09
16,CO[C@H]1O[C@H](COC(=O)NCCCCCC(=O)NO)[C@@H](OC(=O)c2ccccc2)[C@H](OC(=O)Nc2ccccc2-c2ccccc2)[C@@H]1OC(=O)Nc1ccccc1-c1ccccc1,inactive: 1
17,CN1CCN(C(=O)C[C@H]2CC[C@H](NC(=O)Cc3ccccn3)[C@H](CO)O2)CC1,inactive: 1.05
18,COc1ccc(CN(C)C[C@@H]2OCCCC[C@H](C)Oc3ccc(NS(=O)(=O)c4cccs4)cc3C(=O)N([C@H](C)CO)C[C@H]2C)cc1,inactive: 1.01
19,C=CCC[C@@H](Cc1ccc(F)cc1)C(=O)OC[C@@H](Cc1ccccc1)NC(=O)[C@H](CC=C)CC(=O)N(CCO)Cc1ccccc1,inactive: 1.12
